Results reported in the supplement of paper PMC4604168 (melanoma cell lines).
The list shows a part of the results. Many values rest on one well or one pass, so single values are uncertain.

system: WM3619; assay: cell count relative to DMSO control; melanoma cells; higher = more viable cells; details: library dose: standard library concentration; 72 h
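Further: cells treated in 1,536-well plates, then fixed and DAPI-stained, with nuclei counted from automated high-throughput microscope images.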

Compound | cell count [%]
Cc1nc(Nc2ncc(C(=O)Nc3c(C)cccc3Cl)s2)cc(N2CCN(CCO)CC2)n1 [dasatanib] + CCc1ccc(CCOc2ccc(CC3SC(=O)NC3=O)cc2)nc1 [pioglitazone] (first compound 0.02 µM, partner dose 10 µM) | 62.9
CN(C)S(=O)(=O)c1ccc2c(c1)/C(=C/c1cc3c([nH]1)CCCC3)C(=O)N2 + O=C1NC(=O)/C(=C/c2ccc(-c3ccc(F)cc3O)o2)S1 [AS252424] (first compound 2 µM, partner dose 5 µM) | 76.7
Cc1nc(Nc2ncc(C(=O)Nc3c(C)cccc3Cl)s2)cc(N2CCN(CCO)CC2)n1 [dasatanib] + O=C1NC(=O)/C(=C/c2ccc(-c3ccc(F)cc3O)o2)S1 [AS252424] (first compound 0.02 µM, partner dose 5 µM) | 64.8
NC(=O)Nc1cc(-c2cccc(F)c2)sc1C(=O)N[C@H]1CCCNC1 + O=C(O)C(=O)Nc1sc2c(c1C(=O)O)CCNC2 [TCS401] (first compound 0.1 µM, partner dose 8.33333 µM) | 16.7
C[C@]1(c2nc3c(C(N)=O)cccc3[nH]2)CCCN1 [Veliparib] + O=C(Nc1ccccc1)c1cc([N+](=O)[O-])ccc1Cl [GW9662] (first compound 7 µM, partner dose 10 µM) | 59.6
CN(C)S(=O)(=O)c1ccc2c(c1)/C(=C/c1cc3c([nH]1)CCCC3)C(=O)N2 + N#Cc1c(O)c2c(-c3ccc(-c4ccccc4O)cc3)csc2[nH]c1=O [A769662] (first compound 2 µM, partner dose 10 µM) | 66.2
